# Source: the supplement of paper PMC10126150
# Values marked as one replicate rest on one cluster of the flow cell; about a third of the high ones do not repeat.
# Test system: ATP
# Assay: switch fluorescence ratio, 500 uM ATP over buffer (Cy3 cluster intensity, sum of 5 cycles each) (fold (ratio)); higher = stronger signal-on switching upon ATP binding; sequences stand for … in TCGTCGGCAGCGTCAGATGTGTATAAGAGACAGTTTTTTTTTTTTTTTTTTTTTTTTT…TC
# Settings: aptamer strand: ATP DNA aptamer (quencher-CACCTGGGGGAGTATTGCGGAGGAAGG + anchor), 100 nM annealed; ATP concentration: 500 uM; one replicate
# Summary of the method: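 Imaging in selection buffer was followed by imaging after 15 min with 500 uM ATP at 22 °C, for Cy3-labelled switching-strand clusters annealed to 100 nM quencher-labelled ATP aptamer on a modified Illumina MiSeq flow-cell. Five of these buffer/ATP cycles ran, separated by NaOH stripping and re-annealing. The fluorescence ratio per cluster is summed target-cycle over summed buffer-cycle Cy3 intensity, averaged per switch-domain sequence; clusters outside 100-1000 RFU were removed.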
# 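Note: ATP exposure 15 min at 22 °C before imaging.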
row,Sequence,switch fluorescence ratio
1,GTTTTAGTG,0.972
2,GCCTACGAGT,1.05
3,ATATACTCGA,1.09
4,TAATTTGTGA,0.98
5,CCCGATTCCC,1.11
6,CCGGCTAGC,1.02
7,GGGTATATCG,0.996
8,GAATGAAGCT,1
9,CTCGCGCAAG,3.5
10,GCAAGTCGCG,0.992
11,GAGAACAGCT,1.01
12,CAGGACAGAT,0.981
13,AGGAGAGCAT,0.999
14,ACTCACGGTA,1.36
15,CGGAAACCCT,1.24
16,CAGAATCAGA,0.977
17,AAACGTGGTA,0.997
18,CGCGTTCAGC,1.01
19,CTCGGTCGGG,0.997
20,GGGAACCTCG,1
21,AAACCTCGGG,0.97
22,TGTGATAAAG,0.996
23,GAATCCTGT,1.02
24,ATAGCCTGAG,1.13
25,GGCAGTGTAT,1.01
26,CGACGTCCAC,2.2

row,Sequence,switch fluorescence ratio
1,CCATTTGGC,0.947
2,GGACTTTGAT,1.04
3,ACGAAAGGGC,1.05
4,TATTCGCGTT,1.15
5,GGCTTGTTGT,1
6,CAAGTAGTCG,1.03
7,GCACGGATTT,1.1
8,GGTCTGACA,0.964
9,GAAAATACGG,1.01
10,AAACGCCGGT,0.963
11,CTATCCTCGT,0.993
12,TGGTAGTTCT,0.96
13,GACCAGCTTG,0.98
14,TTATCCTCTT,1.01
15,GCACAACATA,1.02
16,CGGAGTGCCA,1.01
17,CACCGATCTT,1.01
18,GGACCCAAGC,1.04
19,TATACCTT,1.15
20,GCTAGTTTAG,0.965
21,GCTTCGGCCA,1.04
22,TTCTACGGGA,1.85
23,ATGAGGCAGC,1.26
24,GTTCTTAAAG,1
25,TACGACGGGA,1.44
26,TTATGGAAC,1.03

row,Sequence,switch fluorescence ratio
1,TAGCGTACTC,2.17
2,TTCCAGATTA,1.03
3,ATGCGATATA,1.08
4,ACTTGGCCTG,0.97
5,GGTGTTTTAA,1.01
6,AGCAGGGGGC,0.993
7,AAAGCCTGT,0.985
8,GGTGTCATAC,1.07
9,TCTATCCT,1.07
10,TTTGAGAACT,0.994
11,TCGGTGCGCG,0.947
12,AATTATATAC,1.05
13,AACAATTGTG,1.01
14,AGACTTGTGG,0.954
15,TTCCCACGAT,1.02
16,ACTTACCGGT,1.11
17,AGCGTCGCTT,0.975
18,GTCACGGGA,1.04
19,AAGGGAGTTG,1.01
20,TAGGCCAAAG,0.963
21,CGGAGGCCCT,1.04
22,ATCAGAGACT,1.01
23,ACTACACGCC,1.32
24,AAACCTAGCT,1.18
25,TGCGCACTCT,1.05
26,TGCCCCCTGG,0.995

row,Sequence,switch fluorescence ratio
1,TCAACCTCCC,1.91
2,TCTACCCCAG,3.67
3,CTATGGAACC,1.01
4,ACTTTATTTT,1.08
5,CGTGGATGAT,0.931
6,GAAAGCTGGG,1.06
7,CATCGTCTTT,0.961
8,GCTTTTCGAG,1.04
9,TTCAGTTCTT,0.952
10,GGCGCCGGTG,0.985
11,GTTATATCG,1.02
12,CGAACACTCG,1.11
13,TGTGGTTAAG,1.04
14,GGTTATATAT,1.07
15,ATTCACTTAA,1.03
16,AAACTAGCCT,1.18
17,GTGTTGGTTC,0.948
18,TCAATCGACG,1
19,ACGGAAATGC,1.36
20,AAACAGAGCA,1.04
21,AATAATAGA,0.991
22,GCTTCTGTCC,1.03
23,CCCCTCTGGG,1
24,CCGCCGTTTG,1.38
25,TTCTCGGACT,1.03
26,GTCCCTTTCA,0.95

row,Sequence,switch fluorescence ratio
1,GCGTGGTTAT,1
2,CGTCGCTGAA,0.97
3,CCTGATTAGT,1.02
4,GTCTGATTCT,0.995
5,TCCGTAGTTA,5.48
6,GTTCAATA,1.28
7,TCGGGTTTAA,0.983
8,TGTAGAAGAT,0.993
9,GATTAGATG,0.951
10,ATCTATAAGG,0.993
11,ACGTCTGTCG,0.963
12,AAAAGTAGCT,1.01
13,TTTGTTGGAC,1.06
14,TTAATGGCTT,1.04
15,GAATATGTGT,0.94
16,CAGCGCTAGT,0.98
17,TTTAGCGGCG,0.96
18,GTCTAAAGGC,1.03
19,ATATTCGCCA,1.02
20,TGAGTTTACT,0.985
21,CAAAGATAGC,0.996
22,GCCGGTGTTA,1
23,GCTTGGGGCT,0.992
24,CATAAGACAC,1.06
25,CAGGGGTAAG,0.971
26,ACTATAGGGG,1.03

row,Sequence,switch fluorescence ratio
1,TAGGTGAAAA,0.979
2,CTCCTTGCGC,1.46
3,ATGAACACGT,0.99
4,AGGGGGCAGT,1.02
5,TTATCTGG,0.965
6,AGAAAACGGG,1.05
7,AATGTCGGTC,0.985
8,TGACGTGTGG,0.967
9,GGCTAAGACG,1.05
10,TCCACTTTCT,1.02
11,CTGCAAGTAG,2.25
12,AGCCGGCCAG,1.07
13,TAGAATGGGG,0.98
14,TCGGTCTGAG,0.984
15,TTATTAGGCT,1.05
16,TTCCATCAAG,0.995
17,GACCGAGACG,1.13
18,CTAGTCAAGT,0.994
19,GGCTGGACTG,0.999
20,GATGGCGATG,1.05
21,GTATAACCGC,1.1
22,ATCTTCTCCG,1.98
23,TTCAGTTATA,1.03
24,AAGACAAAAA,0.993
25,CAAAATACTT,1.21
26,CATAACGTTG,1.01

row,Sequence,switch fluorescence ratio
1,AACCCGTGTC,1.05
2,AATCTATAC,1.12
3,CCTCCTATTT,1.44
4,TAGAGTAAGG,1.01
5,AGACAATGAT,1.01
6,CGTAGCAACT,2.68
7,GTATTAGGCT,1.01
8,ACCGTTAGTA,1.01
9,TTCGTGTTGA,1.02
10,CAGGCGTAAC,1.08
11,TTTGACACTG,0.929
12,AATCACGACC,1.23
13,CTCCTTATGT,0.996
14,GCCAGATAAG,1
15,ATTGTCGGGT,1.12
16,CCGGCTGTCT,1.07
17,TTTCTTTTAG,1.01
18,CGTTCGAGGA,1.01
19,CGTTATTATC,1.13
20,TGAGCTTGG,0.987
21,AGTGCTCTCG,1
22,ATGGTTAATC,1.01
23,TTTTTAAAGA,0.997
24,CTTGTGATGT,0.949
25,AATTATCAGT,1.03
26,GGCCCGCAAG,5.07

row,Sequence,switch fluorescence ratio
1,TCGCTGGTGG,1.03
2,AATCGTAGGG,1.02
3,AGCACCGGGG,0.998
4,TCTTTTCTGC,1.05
5,TCTGCAGCCC,2.17
6,CAGTGGGGT,0.98
7,GATTGTCCGG,0.998
8,ACATTTACTC,1.23
9,ATGTAGTTAA,0.999
10,AGATAGTTCT,1.05
11,ATGGTGTCGG,1.03
12,TAAGCGTCGA,1.06
13,CTCATGCGCT,1.1
14,GTGCTAAGTG,1.05
15,GAGTTTCGGC,0.951
16,ATGAGCGAG,0.987
17,CGTATATATT,0.96
18,TGGATATAG,0.963
19,GATACTGTCC,1.14
